Common to all, as to experiment: two-hybrid; S. cerevisiae AH109 co-transformed with pGBKT7-ARF (bait) and pGADT7-Aux/IAA (prey); growth on SD/-Ade-His-Leu-Trp against SD/-Leu/-Trp; at least 10 independent colonies; serial dilutions for strength
The target in assay [1] is T1, ARF11 (Arabidopsis thaliana) (UniProt Q9ZPY6).
T1 sequence: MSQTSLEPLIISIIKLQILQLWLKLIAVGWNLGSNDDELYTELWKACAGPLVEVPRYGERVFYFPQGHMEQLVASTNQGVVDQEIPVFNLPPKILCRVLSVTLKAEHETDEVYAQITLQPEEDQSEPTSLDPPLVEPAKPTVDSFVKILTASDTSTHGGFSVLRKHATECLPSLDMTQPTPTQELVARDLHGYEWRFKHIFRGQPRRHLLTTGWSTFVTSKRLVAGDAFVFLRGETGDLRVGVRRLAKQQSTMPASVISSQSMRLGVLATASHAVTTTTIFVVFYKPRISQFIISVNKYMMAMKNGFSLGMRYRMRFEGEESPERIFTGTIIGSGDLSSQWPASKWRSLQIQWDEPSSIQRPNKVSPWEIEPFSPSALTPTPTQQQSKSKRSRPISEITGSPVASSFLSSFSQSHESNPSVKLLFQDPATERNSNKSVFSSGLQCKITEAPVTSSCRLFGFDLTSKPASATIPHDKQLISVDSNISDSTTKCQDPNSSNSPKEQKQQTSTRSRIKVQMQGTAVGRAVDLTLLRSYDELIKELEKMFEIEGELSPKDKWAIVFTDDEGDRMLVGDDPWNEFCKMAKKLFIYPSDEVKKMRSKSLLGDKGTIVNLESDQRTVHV

The target of assay [2] is T2, ARF6 (Arabidopsis thaliana) (UniProt Q9ZTX8).
T2 sequence: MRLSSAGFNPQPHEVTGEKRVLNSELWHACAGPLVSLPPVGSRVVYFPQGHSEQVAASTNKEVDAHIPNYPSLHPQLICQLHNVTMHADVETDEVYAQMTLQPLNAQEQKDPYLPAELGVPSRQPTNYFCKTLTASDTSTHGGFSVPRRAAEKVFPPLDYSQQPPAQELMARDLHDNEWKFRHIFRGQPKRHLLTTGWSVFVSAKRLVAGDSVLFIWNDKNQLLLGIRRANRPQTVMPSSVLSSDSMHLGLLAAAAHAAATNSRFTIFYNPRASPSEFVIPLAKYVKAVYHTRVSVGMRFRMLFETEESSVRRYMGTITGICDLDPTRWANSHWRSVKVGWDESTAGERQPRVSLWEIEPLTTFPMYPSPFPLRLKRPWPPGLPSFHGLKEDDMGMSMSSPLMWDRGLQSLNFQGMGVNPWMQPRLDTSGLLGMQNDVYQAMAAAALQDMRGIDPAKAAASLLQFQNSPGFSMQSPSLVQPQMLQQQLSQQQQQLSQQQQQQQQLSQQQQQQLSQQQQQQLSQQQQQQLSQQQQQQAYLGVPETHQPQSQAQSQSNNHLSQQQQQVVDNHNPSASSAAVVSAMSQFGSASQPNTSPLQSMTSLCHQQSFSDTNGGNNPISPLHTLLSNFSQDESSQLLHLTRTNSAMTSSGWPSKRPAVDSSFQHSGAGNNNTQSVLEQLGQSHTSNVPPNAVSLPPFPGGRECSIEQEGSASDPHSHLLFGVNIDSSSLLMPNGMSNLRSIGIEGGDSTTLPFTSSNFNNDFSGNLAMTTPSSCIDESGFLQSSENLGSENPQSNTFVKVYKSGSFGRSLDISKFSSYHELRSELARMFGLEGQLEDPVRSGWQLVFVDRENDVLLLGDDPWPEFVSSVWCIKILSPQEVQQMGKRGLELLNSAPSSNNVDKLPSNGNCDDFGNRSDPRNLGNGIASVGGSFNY

For assay [3], the target named is T3, ARF12 (Arabidopsis thaliana) (UniProt Q9XID4).
T3 sequence: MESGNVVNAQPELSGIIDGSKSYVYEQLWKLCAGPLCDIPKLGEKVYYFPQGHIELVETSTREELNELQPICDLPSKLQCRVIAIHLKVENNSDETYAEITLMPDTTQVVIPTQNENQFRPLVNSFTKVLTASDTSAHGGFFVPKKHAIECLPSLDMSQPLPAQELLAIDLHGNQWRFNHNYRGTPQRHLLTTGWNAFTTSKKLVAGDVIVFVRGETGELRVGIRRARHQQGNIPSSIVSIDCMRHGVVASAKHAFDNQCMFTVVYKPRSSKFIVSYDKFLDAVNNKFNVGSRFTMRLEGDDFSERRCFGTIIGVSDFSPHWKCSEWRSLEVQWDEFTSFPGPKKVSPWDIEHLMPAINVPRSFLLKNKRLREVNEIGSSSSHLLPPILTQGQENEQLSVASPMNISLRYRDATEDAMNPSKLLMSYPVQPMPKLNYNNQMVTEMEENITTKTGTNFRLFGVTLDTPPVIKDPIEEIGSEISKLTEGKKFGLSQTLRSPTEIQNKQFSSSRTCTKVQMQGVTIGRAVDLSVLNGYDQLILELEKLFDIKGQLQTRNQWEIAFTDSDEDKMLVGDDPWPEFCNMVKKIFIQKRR

Results are given in words; binding and its absence hold for the method and conditions named. Some binding calls cover weakened binding; strength is not graded here.

B1: Aux/IAA2 (protein, UniProt P49678 1-174)
chain: MAYEKVNELNLKDTELCLGLPGRTEKIKEEQEVSCVKSNNKRLFEETRDEEESTPPTKTQIVGWPPVRSSRKNNNSVSYVKVSMDGAPYLRKIDLKTYKNYPELLKALENMFKVMIGEYCEREGYKGSGFVPTYEDKDGDWMLVGDVPWDMFSSSCKRLRIMKGSDAPALDSSL
Turning to B1, the binding result in assay [1] is recorded as “no binding”; in assay [2] it was “binds”; in assay [3] it was “no binding”.

B2: Aux/IAA10 (protein, UniProt Q38828 1-261)
chain: MNGLQEVCSSSGSVMIGLPAEEDENAAHSSEDSSCPDESVSETELDLALGLSIGRRKVRSSLSSSSSSLTRESGTKRSADSSPAAASNATRQVAVGWPPLRTYRINSLVNQAKSLATEGGLSSGIQKETTKSVVVAAKNDDACFIKSSRTSMLVKVTMDGVIIGRKVDLNALDSYAALEKTLDLMFFQIPSPVTRSNTQGYKTIKETCTSKLLDGSSEYIITYQDKDGDWMLVGDVPWQMFLGSVTRLRIMKTSIGAGVGK
B2: the results for the binding entry in assay [1], in assay [2] and in assay [3] were “no binding”, “binds” and “no binding”, respectively.

B3: Aux/IAA11 (protein, UniProt Q38829 1-246)
chain: MEGGSASGSASALSNDENLVVSCEDSSSPIGNELELGLTLSLGRKGYRDCRVYADDSSSSSSSSSLSRASVIAGIKRTADSMAATSGQVVGWPPIRTYRMNSMVNQAKASATEDPNLEISQAVNKNRSDSTKMRNSMFVKVTMDGIPIGRKIDLNAHKCYESLSNTLEEMFLKPKLGSRTLETDGHMETPVKILPDGSSGLVLTYEDKEGDWMLVGDVPWGMFIGSVRRLRIMKTSEATGKAQMIL
Take B3: the binding entry in assay [1] is on record as “no binding”; in assay [2] it was “binds”; in assay [3], “no binding”.

B4: Aux/IAA8 (protein, UniProt Q38826 1-321)
chain: MSYRLLSVDKDELVTSPCLKERNYLGLSDCSSVDSSTIPNVVGKSNLNFKATELRLGLPESQSPERETDFGLLSPRTPDEKLLFPLLPSKDNGSATTGHKNVVSGNKRGFADTWDEFSGVKGSVRPGGGINMMLSPKVKDVSKSIQEERSHAKGGLNNAPAAKAQVVGWPPIRSYRKNTMASSTSKNTDEVDGKPGLGVLFVKVSMDGAPYLRKVDLRTYTSYQQLSSALEKMFSCFTLGQCGLHGAQGRERMSEIKLKDLLHGSEFVLTYEDKDGDWMLVGDVPWEIFTETCQKLKIMKGSDSIGLAPGAVEKSKNKERV
Take B4: the binding entry in assay [2] is on record as “binds”; in assay [3], “no binding”.

B5: Aux/IAA6 (protein, UniProt Q38824 1-189)
chain: MAKEGLALEITELRLGLPGDNYSEISVCGSSKKKKRVLSDMMTSSALDTENENSVVSSVEDESLPVVKSQAVGWPPVCSYRRKKNNEEASKAIGYVKVSMDGVPYMRKIDLGSSNSYINLVTVLENLFGCLGIGVAKEGKKCEYIIIYEDKDRDWMLVGDVPWQMFKESCKRLRIVKRSDATGFGLQQD
With B5, the binding result in assay [1] is “no binding”; in assay [2], “binds”; in assay [3] it was “no binding”.

B6: Aux/IAA12 (protein, UniProt Q38830 1-239)
chain: MRGVSELEVGKSNLPAESELELGLGLSLGGGAWKERGRILTAKDFPSVGSKRSAESSSHQGASPPRSSQVVGWPPIGLHRMNSLVNNQAMKAARAEEGDGEKKVVKNDELKDVSMKVNPKVQGLGFVKVNMDGVGIGRKVDMRAHSSYENLAQTLEEMFFGMTGTTCREKVKPLRLLDGSSDFVLTYEDKEGDWMLVGDVPWRMFINSVKRLRIMGTSEASGLAPRRQEQKDRQRNNPV
Consider B6, for which the values for the binding result in assay [1], in assay [2] and in assay [3] were “no binding”, “binds” and “no binding”, respectively.

B7: Aux/IAA1 (protein, UniProt P49677 1-168)
chain: MEVTNGLNLKDTELRLGLPGAQEEQQLELSCVRSNNKRKNNDSTEESAPPPAKTQIVGWPPVRSNRKNNNNKNVSYVKVSMDGAPYLRKIDLKMYKNYPELLKALENMFKFTVGEYSEREGYKGSGFVPTYEDKDGDWMLVGDVPWDMFSSSCQKLRIMKGSEAPTAL
Take B7: the results for the binding result in assay [1], in assay [2] and in assay [3] were “no binding”, “binds” and “no binding”, respectively.

B8: Aux/IAA9 (protein, UniProt Q38827 1-338)
chain: MSPEEELQSNVSVASSSPTSNCISRNTLGGLKEHNYLGLSDCSSVGSSTLSPLAEDDKATISLKATELTLGLPGSQSPARDTELNLLSPAKLDEKPFFPLLPSKDEICSSSQKNNASGNKRGFSDTMDQFAEAKSSVYTEKNWMFPEAAATQSVTKKDVPQNIPKGQSSTTNNSSSPPAAKAQIVGWPPVRSYRKNTLATTCKNSDEVDGRPGSGALFVKVSMDGAPYLRKVDLRSYTNYGELSSALEKMFTTFTLGQCGSNGAAGKDMLSETKLKDLLNGKDYVLTYEDKDGDWMLVGDVPWEMFIDVCKKLKIMKGCDAIGLAAAPRAMEKSKMRA
With B8, the binding entry in assay [1] is “no binding”; in assay [2], “binds”; in assay [3] it was “no binding”.

B9: Aux/IAA15 (protein, UniProt Q9C966 1-179)
chain: MSPEEYVRVWPDSGDLGGTELTLALPGTPTNASEGPKKFGNKRRFLETVDLKLGEAHENNYISSMVTNDQLVGWPPVATARKTVRRKYVKVALDGAAYLRKVDLGMYDCYGQLFTALENMFQGIITICRVTELERKGEFVATYEDKDGDLMLVGDVPWMMFVESCKRMRLMKTGDAIGL
With B9, the results for the binding result in assay [1], in assay [2] and in assay [3] were “no binding”, “binds” and “no binding”, respectively.

B10: Aux/IAA13 (protein, UniProt Q38831 1-247)
chain: MITELEMGKGESELELGLGLSLGGGTAAKIGKSGGGGAWGERGRLLTAKDFPSVGSKRAADSASHAGSSPPRSSSQVVGWPPIGSHRMNSLVNNQATKSAREEEEAGKKKVKDDEPKDVTKKVNGKVQVGFIKVNMDGVAIGRKVDLNAHSSYENLAQTLEDMFFRTNPGTVGLTSQFTKPLRLLDGSSEFVLTYEDKEGDWMLVGDVPWRMFINSVKRLRVMKTSEANGLAARNQEPNERQRKQPV
Regarding B10, the binding result was “no binding” in assay [1], “binds” in assay [2] and “no binding” in assay [3].

B11: Aux/IAA32 (protein, UniProt Q8RYC6 1-191)
chain: MDPNTPADFFKGSSKFHTYYSQTKKGGGVIDLGLSLRTIQHETYLPPARMIGLDGYGELIDWSQPSYNSITQLKSEDTGHQRLAQGYYNNEGESRGKYAYVKVNLDGLVVGRKVCLVDQGAYATLALQLNDMFGMQTVSGLRLFQTESEFSLVYRDREGIWRNVGDVPWKEFVESVDRMRIARRNDALLPF
As to B11, the binding result in assay [1] is given as “no binding”; in assay [2], “binds weakly”; in assay [3], “no binding”.

(Values after publication PMC4274898.)
